# Experimental data reported in paper PMC4336329 (PLoS ONE, 2015).
# Out of some 310,000 compounds screened, about 14,000 (4.5%) showed an effect of 50% or more. The effect is printed as a negative number. This is one part of the list.
# Biological target: human ether-à-go-go-related gene (hERG) potassium channel (human, UniProt Q12809)
# Assay: primary screen, population patch clamp on CHO cells stably expressing hERG
# 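Further: peak tail current of the secondary pulse compared with the same well before compound.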
# Sequence of human ether-à-go-go-related gene (hERG) potassium channel (Q12809 whole entry, looked up): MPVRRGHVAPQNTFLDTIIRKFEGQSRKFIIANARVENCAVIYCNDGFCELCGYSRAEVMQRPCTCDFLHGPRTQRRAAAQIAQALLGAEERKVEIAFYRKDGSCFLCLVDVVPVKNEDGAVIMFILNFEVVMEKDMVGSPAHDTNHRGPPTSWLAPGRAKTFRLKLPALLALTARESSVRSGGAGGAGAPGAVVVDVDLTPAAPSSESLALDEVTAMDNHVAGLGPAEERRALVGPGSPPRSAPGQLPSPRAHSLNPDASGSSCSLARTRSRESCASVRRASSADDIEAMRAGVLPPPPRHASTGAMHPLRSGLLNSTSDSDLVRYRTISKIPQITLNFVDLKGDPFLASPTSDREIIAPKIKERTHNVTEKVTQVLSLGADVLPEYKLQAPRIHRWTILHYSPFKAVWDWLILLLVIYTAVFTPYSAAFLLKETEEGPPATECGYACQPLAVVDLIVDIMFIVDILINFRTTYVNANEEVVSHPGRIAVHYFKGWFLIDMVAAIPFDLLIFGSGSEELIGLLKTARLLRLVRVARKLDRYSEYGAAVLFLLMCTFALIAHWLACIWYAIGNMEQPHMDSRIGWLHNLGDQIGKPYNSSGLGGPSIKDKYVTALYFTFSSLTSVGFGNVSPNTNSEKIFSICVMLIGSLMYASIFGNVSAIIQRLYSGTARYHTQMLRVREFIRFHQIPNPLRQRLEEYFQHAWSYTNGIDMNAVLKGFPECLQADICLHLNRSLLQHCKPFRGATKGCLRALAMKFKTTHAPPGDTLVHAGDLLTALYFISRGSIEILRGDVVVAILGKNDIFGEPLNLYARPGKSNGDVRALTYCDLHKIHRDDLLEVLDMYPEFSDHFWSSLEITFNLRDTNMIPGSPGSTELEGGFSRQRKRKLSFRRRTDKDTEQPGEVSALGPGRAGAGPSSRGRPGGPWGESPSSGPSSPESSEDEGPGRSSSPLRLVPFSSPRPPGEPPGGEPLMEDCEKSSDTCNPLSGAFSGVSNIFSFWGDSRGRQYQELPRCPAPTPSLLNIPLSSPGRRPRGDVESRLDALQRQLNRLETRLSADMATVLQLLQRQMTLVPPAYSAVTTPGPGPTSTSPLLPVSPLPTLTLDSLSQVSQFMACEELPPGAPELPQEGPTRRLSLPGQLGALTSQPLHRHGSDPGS
row,Compound,"hERG current change (%, negative = inhibition) at 10uM [%]"
1,COC(=O)c1ccc(Oc2c(C)oc3cc(OCc4cnn(-c5ccccc5)c4)ccc3c2=O)cc1,1.08
2,CC(OC(=O)c1ccc(NC(=O)CC#N)cc1)C(=O)Nc1nc(-c2ccccc2)cs1 (centres unmarked),-3.7
3,CCC(C)c1ccc(OCc2ccc(C(=O)OC)o2)cc1 (centres unmarked),-12.8
4,Cc1nn(-c2cc(N(S(C)(=O)=O)S(C)(=O)=O)c(Cl)cc2Cl)c(=O)n1C,-0.411
5,COc1ccc(CNC(=O)c2ccc(S(=O)(=O)N3CCCC3)cc2)cc1OC,12.2
6,O=[N+]([O-])c1cc(C(F)(F)F)ccc1NN=C1CCCC1,3.42
7,O=C(O)c1ccc(-n2ccnc2)c([N+](=O)[O-])c1,32.1
8,COCCN(C(=S)Nc1cccc(OC)c1)C1CCN(C(C)=O)CC1,9.94
9,COc1ccc(C2NC(c3ccc(OC)cc3OC)C(C)C(=O)C2C)c(OC)c1.O=C(O)C(=O)O (centres unmarked),46.3
10,O=C(Cc1ccccc1)Nc1ccc(NC(=O)c2cccs2)c(Cl)c1,19.3
11,CN(CC(=O)Nc1cccc(F)c1)C(=O)c1cc([N+](=O)[O-])ccc1N1CCCCC1,10.9
12,N=c1c(-c2nc3ccccc3[nH]2)cc(C(=O)c2cccs2)nn1-c1ccc(Cl)cc1,8.51
13,O=C(O)CCCn1cc(NC(=O)COc2cc(F)ccc2[N+](=O)[O-])cn1,16.3
14,CC(C)(C)c1cc(NC(=O)CSc2nnc(NCc3ccccc3)s2)n(-c2ccccc2)n1,-50.1
15,CN(CC(=O)NCc1ccc(Cl)cc1)S(=O)(=O)c1cccc2cccnc12,-32.4
16,Cc1cc(C(=O)NCCCN2CCN(c3cc(Cl)ccc3C)CC2)n(-c2ccccc2)n1,-89.2
17,Cc1cc(C)c(NC(=O)CN(C)C(=O)CCC(=O)c2ccc(C)s2)c(C)c1,4.04
18,O=C(OCc1ccc(F)cc1)c1cccnc1Cl,-7.94
19,COc1ccc(NC(=O)CS(=O)(=O)c2ccc(C)cc2)c(OC)c1,0.382
20,Cc1cc(NCc2cccnc2)no1,12.6
21,COC(=O)C1=C(c2cccc(OCc3ccccc3)c2)C[C@@H]2CC[C@H]1N2C(=O)NCCCOC(C)C,-7.93
22,COc1ccc2cc(C#N)c(SCC(=O)Nc3nonc3C)nc2c1,4.53
23,COc1cc(/C=C/C(=O)Nc2cc(S(=O)(=O)N3CCOCC3)ccc2N2CCCC2)cc(OC)c1OC,24
24,O=C(COC(=O)C1CC2C=CC1C2)NCc1ccco1 (centres unmarked),-2.31
25,CCc1cccc(NC(=O)Cn2c(=O)n(CCC(=O)NCC3CCCO3)c(=O)c3cc(OC)c(OC)cc32)c1 (centres unmarked),2.65
26,Cn1nnc2c(NCc3ccco3)nccc21,1.71
27,O=C(/C(=C/c1ccccc1Cl)c1ccccc1)N1CCOCC1,-3.84

row,Compound,"hERG current change (%, negative = inhibition) at 10uM [%]"
1,c1ccc(CCc2cn(C[C@H]3CC[C@@H]([C@@H]4CC[C@H](Cn5cc(CCc6ccccc6)nn5)O4)O3)nn2)cc1,-38.2
2,Cc1cc(C(=O)COC(=O)c2ccc[nH]c2=O)c(C)n1-c1ccccc1,0.679
3,CCOc1ccc(NC(=O)c2ccc3c(=O)n4c(nc3c2)CCCCC4)cc1,19.5
4,COc1nc(-c2ccccc2)cc(-c2ccccc2)n1,-14.7
5,CC(Sc1cccc(C(F)(F)F)c1)C(=O)NC(N)=O (centres unmarked),16
6,O=C(NCc1ccccn1)C(C(=O)c1cccc([N+](=O)[O-])c1)n1cc(Cl)ccc1=O (centres unmarked),26.2
7,COc1ccc(C(=O)Nc2ccccc2C(=O)Nc2ccncc2)cc1,-0.689
8,Cc1ccc(Nc2nnc(SCC(=O)N(C)C3CCS(=O)(=O)C3)s2)cc1 (centres unmarked),-3.48
9,COC(=O)c1sccc1-n1cccc1C(=O)C(=O)N1CCCCC1,7.22
10,O=C(c1cc2c(s1)CCCC2)N1CCC2(CC1)OCCO2,-7.75
11,CCCCOc1ccc(Nc2cc(Cl)ccc2C(=O)O)cn1,23.5
12,C=CCn1c(CNC(=O)c2cccs2)n[nH]c1=S,15.5
13,CC(Sc1nc(N2CCOCC2)c2c(c1C#N)CC(C)(C)OC2)C(=O)O (centres unmarked),25.8
14,Cc1cc(C)cc(C(=O)Oc2cc(C)[nH]c(=O)c2[N+](=O)[O-])c1,24.6
15,COc1cccc(-n2c(N)c(-c3nc4ccccc4[nH]3)sc2=S)c1,1.42
16,Cc1cccc(N2CCN(C(=O)c3nn(C)c4c3CS(=O)(=O)c3ccccc3-4)CC2C)c1 (centres unmarked),-46.2
17,COc1ccc(N2C(=O)c3cc4ccccc4cc3C2=O)cc1,2.74
18,Cc1ccc(S(=O)(=O)c2nc(NCc3ccc4c(c3)OCO4)sc2Cl)cc1,-1.71
19,COc1c(O)ccc2c1CN1CCc3cc4c(cc3C1C2)OCO4 (centres unmarked),-22
20,COc1ccc(OC)c(N(CC(=O)Nc2cccc(C(F)(F)F)c2)S(C)(=O)=O)c1,3.55
21,O=C(Cc1ccc(-n2c(=S)[nH]c3ccccc3c2=O)cc1)N1CCN(c2ccccc2)CC1,8.11
22,Cc1cc(Br)ccc1NC(=O)CN(C)C(=O)C1CCN(C(=O)c2ccc(F)cc2)CC1,-65.1
23,COc1ccc(Nc2nc(NCc3ccco3)nc(N)c2[N+](=O)[O-])cc1,20.3
24,CC1(C)CC(=O)C=C(C(=O)N2CCCC(CCC(=O)NCc3ccccc3F)C2)O1 (centres unmarked),14.5
25,CCc1noc(C)c1C(=O)Nc1cc(S(=O)(=O)N2CCOCC2)ccc1N1CCN(CC)CC1,-19.5
26,O=C(O)CCCNS(=O)(=O)c1ccc2ccccc2c1,20.2
